{"source": "ChEMBL document CHEMBL1201862", "about": "“PubChem BioAssay data set” (2004)", "note": "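In this assay, cells in 96-well plates receive the compound at five concentrations for 48 hours. Endpoints are linearly interpolated between the surrounding concentrations. The concentration for 50% growth inhibition is given as GI50.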 The source made the active and inactive calls. No stated cut-off is given here; in the data, active = GI50 up to about 1.1 µM and inactive = higher.", "data": [{"test_system": "NCI-H322M", "assay": "inhibition of tumour cell growth, NCI panel, 48 h", "values": [{"smiles": "Oc1ccc(CCNCc2cc3c(cc2Br)OCO3)cc1", "GI50": "inactive: > 100 µM"}, {"smiles": "CC1(C)COC(c2ccc(C(=O)c3ccc(Cl)cc3)cc2)=N1", "GI50": "inactive: > 100 µM"}, {"smiles": "c1cc2c(cnc3cscc32)s1", "GI50": "inactive: > 100 µM"}, {"smiles": "O=C(O)CCN(CCC(=O)O)c1ccc(/C=C2\\SC(=S)NC2=O)cc1", "GI50": "inactive: > 100 µM"}, {"smiles": "CCCCC/C=C1\\CC(CO)(COC(=O)CC(C(C)C)C(C)C)OC1=O", "note": "(stereo not given)", "GI50": "inactive: 11.6 µM"}, {"smiles": "O=C1NC(=O)C(c2c[nH]c3ccccc23)=C1c1cnc[nH]1", "GI50": "inactive: > 100 µM"}, {"smiles": "O=C1CCc2cc(Br)ccc2O1", "GI50": "inactive: > 100 µM"}, {"smiles": "CNC(=O)OCc1c2ccncc2c(C)c2c1[nH]c1ccccc12", "GI50": "active: 0.267 µM"}, {"smiles": "CC1CN1c1c(C(=O)/C=C/c2ccccc2)c(-c2ccccc2)nn(C)c1=O", "note": "(stereo not given)", "GI50": "inactive: 18.2 µM"}, {"smiles": "Brc1ccc2nc(-c3cccs3)nc(N3CCN(c4ccccc4)CC3)c2c1", "GI50": "inactive: > 100 µM"}, {"smiles": "COC(=O)c1cc2c3c(ccc2[nH]1)N(C(=O)c1cc2c4c(ccc2[nH]1)N(C(=O)c1cc2c5c(ccc2[nH]1)N(C(N)=O)CC5)CC4)CC3", "GI50": "inactive: > 27.5 µM"}, {"smiles": "COC(=O)n1c(CBr)c(Br)c2ccccc21", "GI50": "inactive: 94.2 µM"}, {"smiles": "CC1(C)[C@H]2CC[C@@]13C(=O)N1C(=O)O[C@@H]([C@H]1Cl)C(Cl)(COCc1ccccc1)C(=O)OCCO[C@H]3C2", "note": "(stereo not given in full)", "GI50": "inactive: > 100 µM"}, {"smiles": "C/C=C/COc1cc(NC(=S)OC(C)C)ccc1Cl.C/C=C\\COc1cc(NC(=S)OC(C)C)ccc1Cl", "GI50": "inactive: 20.4 µM"}, {"smiles": "Cc1cc(NS(=O)(=O)c2ccc(NO)cc2)no1", "GI50": "inactive: > 100 µM"}, {"smiles": "O=NN(CCCl)C(=O)Nc1ccc(Cl)c(Cl)c1", "GI50": "inactive: > 100 µM"}, {"smiles": "O=C1c2ccccc2NC(=S)[C@@H]2CCCN12", "GI50": "inactive: > 100 µM"}, {"smiles": "COC1C(O)CC(OC2C(C)OC(Oc3cc(O)c4c(O)c5c(cc4c3)C[C@@H]([C@H](OC)C(=O)[C@@H](O)[C@@H](C)O)[C@H](OC3CC(OC4CC(OC6CC(C)(O)C(O)C(C)O6)C(O)C(C)O4)C(O)C(C)O3)C5=O)CC2OC(C)=O)OC1C", "note": "(stereo not given in full)", "GI50": "inactive: > 100 µM"}, {"smiles": "CNC(=O)NCCCC(NC(C)=O)C(=O)NCc1ccccc1", "note": "(stereo not given)", "GI50": "inactive: > 100 µM"}, {"smiles": "O=C1/C(=N/N=C(c2ccccc2)c2ccccc2)c2ccccc2-c2ccccc21", "GI50": "inactive: 39.3 µM"}, {"smiles": "CSc1ccc(-c2cc(-c3nc4ccccc4[nH]3)no2)cc1", "GI50": "inactive: 39.4 µM"}, {"smiles": "C/C=C(C)/C=C/CC(C)CCC=C(C)C", "note": "(stereo not given)", "GI50": "inactive: > 100 µM"}, {"smiles": "CCc1ccccc1NC(=O)C(C#N)C1=C(Cl)C(=O)c2ccccc2C1=O", "note": "(stereo not given)", "GI50": "inactive: 14.8 µM"}, {"smiles": "NC1Cc2ccccc2OC1=O", "note": "(stereo not given)", "GI50": "inactive: > 100 µM"}, {"smiles": "CCCCCCCC/C=C1\\CCC(CN2CCOCC2)C1=O", "note": "(stereo not given)", "GI50": "inactive: 16.4 µM"}, {"smiles": "N=C(N)NS(=O)(=O)c1ccc(NC(=O)c2c3ccccc3nc3ccccc23)cc1", "GI50": "inactive: > 100 µM"}, {"smiles": "CCOC(=O)/C(=C/c1ccc(C#N)cc1)N(CC)CC", "GI50": "inactive: > 100 µM"}, {"smiles": "CN1C/C(=C\\c2ccc(Cl)cc2)C(=O)/C(=C/c2ccc(Cl)cc2)C1", "GI50": "inactive: 2.01 µM"}, {"smiles": "Nc1cnc(Nc2cccc3ccccc23)o1", "GI50": "inactive: > 10 µM"}, {"smiles": "COC(=O)c1c(CC(Cc2ccc3c(c2)CCCC3)C(=O)O)ccc2c1CCCC2", "note": "(stereo not given)", "GI50": "inactive: 36 µM"}, {"smiles": "CCOC(=O)C1N(S(=O)(=O)c2ccc(C)cc2)CCC12C(c1ccc(OC)cc1)NC1CCCCC12", "note": "(stereo not given)", "GI50": "inactive: > 100 µM"}, {"smiles": "O=C1c2ccoc2C(=O)c2oc(=O)ccc21", "GI50": "inactive: > 39.7 µM"}, {"smiles": "COCn1c2ccc(OC(C)=O)cc2c2c(=O)oc(C)nc21", "GI50": "inactive: > 100 µM"}, {"smiles": "Cc1cc(O)nc(NN2C(Cl)C(=O)C2c2c(O)ccc3ccccc23)n1", "note": "(stereo not given)", "GI50": "inactive: 18.9 µM"}, {"smiles": "COC(=O)C1C(=O)CC(C)(O)C(C(=O)OC)C1c1ccc(N(C)C)cc1", "note": "(stereo not given)", "GI50": "inactive: > 100 µM"}, {"smiles": "Cc1ccc(-c2n[nH]c(=O)n2/N=C\\c2ccccc2O)cc1", "GI50": "inactive: > 100 µM"}, {"smiles": "C[C@H]1NC(=O)C2CCCCN2C(=O)CN(C)C(=O)CNC(=O)C2CCCCN2C(=O)[C@@H](NC(=O)c2nc3ccccc3cc2O)[C@@H](C)NC(=O)C2CCCCN2C(=O)CN(C)C(=O)CNC(=O)[C@@H]2CCCCN2C(=O)C1NC(=O)c1nc2ccccc2cc1O", "note": "(stereo not given in full)", "GI50": "active: 0.299 µM"}, {"smiles": "Clc1ccc(-n2nnc(C3=NCCCN3)c2-c2ccccc2)cc1", "GI50": "inactive: > 100 µM"}, {"smiles": "NS(=O)(=O)c1nnc(NS(=O)(=O)c2cccc3cccnc23)s1", "GI50": "inactive: > 100 µM"}, {"smiles": "O=C1OC(CC(=O)c2ccc(Cl)cc2Cl)C(Cl)=C1Cl", "note": "(stereo not given)", "GI50": "inactive: 47 µM"}, {"smiles": "CC(=O)Nc1ccc2c(c1)nc1c3ccccc3ccn21", "GI50": "inactive: > 100 µM"}, {"smiles": "CCOC(=O)C/C(=N\\c1cc(C)on1)N(CC)CC.[O-][Cl+3]([O-])([O-])O", "GI50": "inactive: > 100 µM"}, {"smiles": "CSc1nc(-c2cc3c(c(SC)n2)CCC3)cc2c1CCC2", "GI50": "inactive: > 100 µM"}, {"smiles": "O=C1N/C(=N/N=C/c2ccccc2)N/C1=C\\c1cccs1", "GI50": "inactive: 21.7 µM"}, {"smiles": "COC(=O)C1([C@@H]2C[C@@H](O)[C@]3(C)CC/C=C(\\C)CCC[C@H](C)[C@H](O)[C@@H]2O3)CC1", "GI50": "inactive: > 100 µM"}, {"smiles": "COC1CC(C)(N)C(O)C(C)O1", "note": "(stereo not given)", "GI50": "inactive: > 100 µM"}, {"smiles": "CC(C)=C[C@@H]1C[C@H](n2cc(C)c(=O)[nH]c2=O)ON1CCO", "GI50": "inactive: > 100 µM"}, {"smiles": "CCC1(O)CC(OC2CC(N(C)C)C(OC3CC(O)C(OC4CCC(=O)C(C)O4)C(C)O3)C(C)O2)c2c(cc3c(c2O)C(=O)c2c(O)ccc(O)c2C3=O)C1C(=O)OC", "note": "(stereo not given)", "GI50": "active: < 0.01 µM"}, {"smiles": "Oc1ccc[n+](Cc2ccccc2)c1", "GI50": "inactive: > 100 µM"}, {"smiles": "Cc1ccc(S(=O)(=O)c2c(N)c3nccn3c3nc4ccccc4nc23)cc1", "GI50": "inactive: 38.6 µM"}, {"smiles": "C=CCOc1ccc(C2c3c(n[nH]c3O)CC(O)(OCC)C2C(=O)OCC)cc1OC", "note": "(stereo not given)", "GI50": "inactive: > 100 µM"}, {"smiles": "O=c1oc2ccc3ccccc3c2cc1-c1nnc(-c2ccc([N+](=O)[O-])cc2)[nH]1", "GI50": "inactive: > 100 µM"}, {"smiles": "CN(C)CCNC(=O)c1cccc2nc3ccc4ccccc4c3nc12", "GI50": "active: 0.091 µM"}, {"smiles": "O=c1cc(/C=C/c2ccc(O)c(O)c2)cc(/C=C/c2ccc(O)c(O)c2)o1", "GI50": "inactive: 11 µM"}, {"smiles": "N#Cc1cccc2c1Sc1ccccc1N2", "GI50": "inactive: 38.8 µM"}, {"smiles": "C1=C(c2ccccc2)SC(N2CCCCC2)S1", "note": "(stereo not given)", "GI50": "inactive: > 100 µM"}, {"smiles": "CCN(CC)CCNc1n[n+]([O-])c2ccccc2[n+]1[O-]", "GI50": "inactive: 19.1 µM"}, {"smiles": "O=[N+]([O-])c1cc2c(c([N+](=O)[O-])c1)NCc1ccccc1O2", "GI50": "inactive: > 100 µM"}, {"smiles": "CC[N+](CC)(CC)Cc1cn(S(=O)(=O)c2ccccc2)c2ccccc12", "GI50": "inactive: > 100 µM"}, {"smiles": "Cc1cn(CC2=NC3CCCCC3N2)c(=O)[nH]c1=O", "note": "(stereo not given)", "GI50": "inactive: > 100 µM"}, {"smiles": "CCCCCCCCCCCC1=C(O)C(=O)C(CC2=C(O)C(=O)C(CCCCCCCCCCC)=C(O)C2=O)=C(O)C1=O", "GI50": "inactive: > 100 µM"}, {"smiles": "O=C(O)CP(=S)(S)c1ccccc1", "note": "(stereo not given)", "GI50": "inactive: > 100 µM"}, {"smiles": "COc1ccc(CNNC(=O)c2cc[n+]([BH2-]C#N)cc2)cc1OC", "GI50": "inactive: > 100 µM"}, {"smiles": "C=C1CCC(CC[C@@H]2CC[C@]3(OC2)O[C@@]2(O)CC[C@]3(C)OC2(C)C)C(C)(C)[C@H]1C/C=C1/C(=O)OC[C@@H]1O", "note": "(stereo not given in full)", "GI50": "inactive: 5.08 µM"}, {"smiles": "COc1ccc(-c2c3c(cc4cc5c(cc24)OCO5)C(=O)OC3)cc1OC", "GI50": "inactive: 1.66 µM"}]}]}
